# PubChem BioAssay AID588855 (National Center for Advancing Translational Sciences (NCATS), 2011)
# Among all 410,000 compounds or so, about 5,000 (1.2%) were called active. Inconclusive means that the source gave no clear call. Such entries were picked first, then a sample of the others. Calls come from the whole dose curve; as a rule, active = well fitted inhibition curve with a large enough effect; inconclusive = small, poorly fitted or top-dose-only effect; inactive = no such curve, though single readings can be large or run the other way. Potencies of inconclusive entries are doubtful fits and often do not repeat.
# Experiment: qHTS for Inhibitors of TGF-b; note: nearly all actives have a fitted effect of over 65% in size
# Details: HepG2 CAGA-GFP TGF-b/SMAD3 reporter, GFP fluorescence, 18 h, TGF-beta stimulated, 500 pg/mL final; series mostly up to 46.1 µM
# In short: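 Inhibition of TGF-beta-driven CAGA-GFP reporter expression in HEPG2 cells is measured by cellular GFP fluorescence after 18 h stimulation with 500 pg/mL recombinant TGF-beta in 1% FBS medium at 37 degrees C.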
# Potency is the fitted concentration of half-maximal effect; tags give direction and shape of the fitted curve.
row,Compound,Potency
1,Cc1ccc(-n2c(=O)c3oc4ccccc4c3n(Cc3ccccc3)c2=O)cc1C,inactive
2,COc1cc(/C=N/NC(=O)c2nnn(-c3nonc3N)c2C(C)C)ccc1OCc1ccc(F)cc1,"inconclusive: 35.5 µM [inhibitor, single point]"
3,O=C(Cn1c(-c2cccs2)cc2ccccc21)NCCCN1CCN(c2cccc(Cl)c2)CC1,active: 12.6 µM
4,O=c1c(Cl)c(Cl)cnn1Cc1nnc(-c2ccccc2Br)o1,active: 15.8 µM
5,O=C1CCCc2cc(S(=O)(=O)N3CCCC(C(=O)NCc4ccccc4Cl)C3)ccc2N1 (configuration not stated),inactive
6,Cc1ccccc1-c1cc2nc(NCc3ccc(N(C)C)cc3)n(C)c(=O)c2s1,"inconclusive: 35.5 µM [inhibitor, single point]"
7,COc1ccc(/C=C2/CCc3ccccc3C2=O)cc1CN1CCOCC1,inactive
8,COc1ccccc1N(C)S(=O)(=O)c1ccc(C(=O)NCCCN2CCCC2=O)cc1,inactive
9,O=C1OCCN1C(=O)[C@H]1[C@H](c2ccccc2)C(c2ccc(F)cc2)=NN1c1ccccc1,"inconclusive: 6.31 µM [inhibitor, partial curve]"
10,Cc1cc(Cl)ccc1N(CC(=O)N=Nc1c(O)[nH]c2ccccc12)S(C)(=O)=O,"inconclusive: 17.8 µM [inhibitor, partial curve, poor fit]"
11,CCOC(=O)NN=C1c2ccccc2-c2ccccc21,inactive
12,Cc1noc(-c2ccc(N3CCCCC3C)c([N+](=O)[O-])c2)n1 (configuration not stated),"inconclusive: 31.6 µM [inhibitor, single point]"
13,C=CCn1c(SCc2csc(-c3ccc(C)cc3)n2)nnc1-c1ccccc1OC,"inconclusive: 35.5 µM [inhibitor, single point]"
14,NCc1ccc2[nH]c(=O)[nH]c2c1,"inconclusive: 35.5 µM [inhibitor, single point]"
15,COc1ccccc1/C=C/c1ccc2ccccc2n1,inactive
16,Cc1cc(OC(=O)c2ccc(S(=O)(=O)N(C)C)cc2)cc(=O)o1,inactive
17,CCCCn1c(SCC(=O)c2ccc(OC)cc2OC)nc2cc(S(N)(=O)=O)ccc21,inactive
18,CCN(Cc1ccccc1)C(=O)c1ccc(N(C)S(=O)(=O)c2ccc(C)cc2)cc1,"inconclusive: 35.5 µM [inhibitor, partial curve, poor fit]"
19,COC(=O)C1C(O)=C(C(C)=Nc2cccc3ccccc23)C(=O)CC1(C)C (configuration not stated),"inconclusive: 3.98 µM [inhibitor, full curve, poor fit]"
20,Cc1ccc(CCNC(=O)C(C)n2nc(C)c3c(C)n(-c4ccc(C)cc4)nc3c2=O)cc1 (configuration not stated),"inconclusive: 14.1 µM [inhibitor, partial curve, poor fit]"
21,O=C(N/N=C\c1cccc(Cl)c1)c1n[nH]c2c1CCCC2,inactive
22,Nc1ncc(-c2ccccc2)n1CC1CCCO1 (configuration not stated),"inconclusive: 15.8 µM [inhibitor, single point]"
23,Cc1c(C)n(C)c2ccc(C(=O)NCCCN3CCN(c4ccccc4F)CC3)cc12,"inconclusive: 22.4 µM [inhibitor, single point]"
24,CCc1ccc(C2CC(=O)c3c([nH]c(C(=O)OC4CCCCCC4)c3C)C2)cc1 (configuration not stated),inactive

row,Compound,Potency
1,Cc1ccccc1OCC(=O)Nc1ccc2[nH]c(=O)sc2c1,inactive
2,COc1ccc(CCNC(=O)c2nc(SCc3ccc(F)cc3)ncc2Cl)cc1OC,"inconclusive: 35.5 µM [inhibitor, single point]"
3,CCOC(=O)N1CCC(NC(=O)c2ccc3c(c2)N(Cc2ccc(F)cc2)C(=O)c2ccccc2S3=O)CC1 (configuration not stated),"inconclusive: 12.6 µM [inhibitor, partial curve]"
4,Cc1cccnc1Nc1nc(-c2ccccn2)cs1,"inconclusive: 2.82 µM [inhibitor, partial curve]"
5,O=C(Cn1c(=O)oc2ccccc21)Nc1ccccc1Cl,inactive
6,CC(C)c1onc(C(=O)NC(C)c2ccccc2)c1[N+](=O)[O-] (configuration not stated),inactive
7,CCOc1ccc(S(=O)(=O)N(C)c2ccc(OCC(=O)Nc3ccc4[nH]c(=O)[nH]c4c3)cc2)cc1,"inconclusive: 17.8 µM [inhibitor, single point]"
8,C/C(=N/NC(=O)c1cc(-c2cccc([N+](=O)[O-])c2)n[nH]1)c1cccc(O)c1,inactive
9,CN(C)Cc1csc(NC(=O)Nc2cccc(C(F)(F)F)c2)n1,inactive
10,CCOC(=O)C1=C(CC)OC(N)=C(C#N)C1c1cccs1 (configuration not stated),inactive
11,Cc1ccc(CC(=O)Nc2ccccc2N2CCOCC2)cc1C,"inconclusive: 3.98 µM [inhibitor, partial curve, poor fit]"
12,COc1ccc(OCCCC(=O)Nc2nc(C)c(C(C)=O)s2)cc1,inactive
13,Cc1ccc(OCCOC(=O)c2c(-c3ccccc3)noc2C)cc1,inactive
14,COc1ccc(CCCC(=O)NC(C)c2ccccc2)cc1 (configuration not stated),"inconclusive: 1.58 µM [inhibitor, partial curve, poor fit]"
15,COc1ccc(/C=N/n2c(C3CCCCC3)n[nH]c2=S)c(OC)c1,inactive
16,COc1cc(/C=N/NC(=O)c2cc(-c3cccc(OC(C)C)c3)nc3ccccc23)ccc1O,"inconclusive: 10 µM [inhibitor, partial curve, poor fit]"
17,COc1ccc(CN2CCN(Cc3c[nH]c4ccccc34)CC2CCO)cc1C (configuration not stated),inactive
18,CC1Sc2ccc(S(=O)(=O)N3CCC(C(=O)Nc4cccc(Cl)c4)CC3)cc2NC1=O (configuration not stated),"inconclusive: 17.8 µM [inhibitor, partial curve, poor fit]"
19,O=C(Cc1ccccc1)Nc1nc2ccccc2s1,inactive
20,O=C(Cc1ccccc1Nc1c(Cl)cccc1Cl)OCO/N=[N+](\[O-])N1CCCC1,"inconclusive: 11.2 µM [inhibitor, single point]"
21,CCCCOCCCNc1ncnc2c1[nH]c1ccccc12,"inconclusive: 15.8 µM [inhibitor, single point]"
22,COCCN(C(=O)Cc1ccc(S(=O)(=O)N2CCOCC2)s1)c1c(N)n(CC(C)C)c(=O)[nH]c1=O,inactive
23,O=C(/C=C/c1ccc(Cl)cc1Cl)NCCSc1ccccc1,"inconclusive: 17.8 µM [inhibitor, single point]"
